# In PubChem BioAssay AID485344 (National Center for Advancing Translational Sciences (NCATS), 2010):
# In all, about 340,000 compounds went through this assay and about 6,900 (2%) were called active. Cut-off read from the data, not from the text of the source: active = inhibition above about 30%; inactive = below that, where a call was filed. Only a part is listed here, and it is no random draw. Entries without a call were filed so in the source.
# Molecular target: D(2) dopamine receptor (Homo sapiens) (UniProt P14416)
# UniProt P14416, sequence (P14416 whole entry, looked up): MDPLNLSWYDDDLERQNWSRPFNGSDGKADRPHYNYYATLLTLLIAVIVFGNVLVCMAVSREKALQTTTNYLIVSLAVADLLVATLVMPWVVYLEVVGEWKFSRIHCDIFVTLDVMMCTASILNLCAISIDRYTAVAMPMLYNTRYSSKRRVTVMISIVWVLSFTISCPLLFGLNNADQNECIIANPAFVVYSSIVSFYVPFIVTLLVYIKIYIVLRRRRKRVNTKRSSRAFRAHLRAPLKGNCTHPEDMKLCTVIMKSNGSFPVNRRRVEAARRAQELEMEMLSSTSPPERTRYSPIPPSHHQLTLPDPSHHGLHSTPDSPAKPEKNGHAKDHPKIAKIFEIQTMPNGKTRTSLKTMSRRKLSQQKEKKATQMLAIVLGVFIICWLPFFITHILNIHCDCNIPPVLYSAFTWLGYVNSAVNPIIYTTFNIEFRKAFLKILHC
# Assay: HTS Assay for Allosteric Antagonists of the Human D2 Dopamine Receptor: Primary Screen for Antagonists; note: 0% is about no effect
# Conditions: HEK293 TREx D2 cells, calcium flux, dopamine EC80; at 10 µM; stronger effect = higher value
# How it was run: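 Compounds are added to dye-loaded, induced HEK293 T-REx cells coupled to calcium release via D2; after a 3 min kinetic read an EC80 dopamine stimulus is given and fluorescence is recorded for 3 more min.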
row,Structure (SMILES),inhibition
1,CC(C)c1ccc(S(=O)(=O)c2nnn3c2nc(N2CCN(C)CC2)c2sccc23)cc1,11.2%
2,CC(=O)c1cccc(NC(=O)c2nc3ccccc3n(C)c2=O)c1,3.44%
3,COc1cc(C2c3c(-c4ccccc4O)n[nH]c3C(=O)N2CCO)ccc1OCc1ccccc1 (stereo not drawn),-12.2%
4,CCOC(=O)c1ccccc1NC(=O)c1c2c(nc3ccccc13)C(=O)N(C1CCCCC1)C2,0.183%
5,Nn1c(SC/C=C/c2ccccc2)nnc1-c1ccncc1,active: 37.9%
6,COc1cccc(CN2C(=O)c3ccccc3Sc3ccc(C(=O)N(C)Cc4ccccc4)cc32)c1,5.38%
7,COc1ccc(-c2nnc(SCc3cc(=O)c4cc(C)cc(C)c4[nH]3)n2C)cc1,16.1%
8,COc1ccccc1NC(=O)c1cc2ccc3cccnc3c2[nH]1,-12%
9,CCCCNC(=O)CSc1nc2ccccc2nc1Cc1ccc(C)cc1,4.98%
10,CCOC(=O)c1nccnc1C(=O)Nc1cccc(C(F)(F)F)c1,active: 31.9%
11,COc1cccc2cc(-c3nc(Nc4cccc(C)c4)sc3C)c(=O)oc12,0.865%
12,O=C(c1cccs1)c1cn(CCOc2ccccc2F)c2ccccc12,8.87%
13,O=C(NCc1ccc2c(c1)CCN2C(=O)c1ccccc1)c1cc2ccccc2[nH]1,11.7%
14,CCc1ccc(NC(=O)c2sc3ncnc(N(C)C4CCCCC4)c3c2C)cc1,-1.05%
15,CCOc1ccc(C2C(C(N)=O)=C(C)Nc3nc(SCc4ccccc4)nn32)cc1 (stereo not drawn),1.66%
16,COc1ccc(CNC(=O)Nc2ccc3c(c2)N(C)C(=O)c2ccccc2S3)cc1,16.2%
17,CC(=O)C1=C(c2ccc(C)cc2)N(C(C)=O)n2c(nnc2C2CCCCC2)S1,-2.05%
18,O=C(CN1C(=O)COc2ccc(S(=O)(=O)N3CCCC3)cc21)N1CCN(c2ccccc2)CC1,3.41%
19,O=C(CSc1ncc2c(n1)-c1ccc(Cl)cc1N(Cc1ccccc1)S2(=O)=O)Nc1ccc(F)c(F)c1,-10.7%
20,CCOC(=O)C1CCCN(CC(=O)N2CCCc3c2c(=O)oc2ccc(OCc4ccccc4)cc32)C1 (stereo not drawn),-2.17%
21,CCN1CCN(CCCNC(=O)c2cc3c(s2)-c2ccccc2OC3)CC1,-18%
22,COc1cc(OC)cc(C(=O)Nc2cc(-c3nc4cc(Cl)ccc4o3)ccc2Cl)c1,-6.6%
23,CCC(C)NCCOc1ccc(C)cc1[N+](=O)[O-] (stereo not drawn),active: 53.7%
24,N#C/C(=C\c1ccc(-c2ccc(C(=O)O)cc2)o1)C(=O)Nc1ccccc1C(=O)O,-8.96%
25,Cc1nn(CCC(=O)Nc2cc(F)ccc2F)c(=O)c2nn(-c3ccccc3)c(C)c12,1.56%

row,Structure (SMILES),inhibition
1,CC1CCCCN1C(=O)CSc1n[nH]c(-c2ccccc2Cl)n1 (stereo not drawn),-1.68%
2,O=C(CC1N=C2c3ccccc3N=C(SCc3cccc(Cl)c3)N2C1=O)NCc1ccc2c(c1)OCO2 (stereo not drawn),8.67%
3,COc1cc(Nc2nc(SCC(=O)c3ccc(Br)cc3)nc3ccccc23)cc(OC)c1,24.6%
4,CCOC(=O)c1ccc2c(c1)N(CC(=O)N(C)c1ccccc1)C(=O)c1ccccc1S2,17.7%
5,COc1ccccc1NC(=O)c1cc(=O)c2ccc(C)c(C)c2o1,-2.95%
6,COc1ccc(-c2cn(-c3ccc(C)cc3)c(S(=O)(=O)CC(=O)Nc3ccc(F)cc3)n2)cc1,8.24%
7,CCN1C(=O)c2cccc3c(N)ccc(c23)C1=O,active: 60.5%
8,Cc1ccc(Cc2c(C)nc3nc(SCC(=O)NC4CCC(C)CC4)nn3c2C)cc1 (stereo not drawn),1.38%
9,CC(=O)Nc1ccc(OCC(O)CN2CCN(c3ccccc3Cl)CC2)cc1 (stereo not drawn),active: 76.3%
10,CCOc1ccc(CCNC(=O)c2cc3c(=O)oc4ccc(C)cc4c3s2)cc1OCC,6.25%
11,CC(C)(C)C(=O)Nc1cccc(-c2cn3cccnc3n2)c1,13.6%
12,COc1cccc(-n2c(=O)c3c(C)c(C)sc3n(CC(=O)NCc3ccc(C)cc3)c2=O)c1,-8.59%
13,CC(=O)N1CCc2c(sc(NC(=O)CSc3ccccc3)c2-c2nc3ccccc3s2)C1,24.3%
14,Cc1cccc(CSc2ncc(Cl)c(C(=O)Nc3sc4c(c3C(N)=O)CCCC4)n2)c1,6.02%
15,O=C(Cn1c(=O)nc(-c2ccccc2)c2ccccc21)Nc1cccc(C(F)(F)F)c1,19.2%
16,COc1cccc(CNCCNC(=O)c2nonc2N)c1,12.8%
17,Cc1cccc(NS(=O)(=O)c2c(C)nc3sccn3c2=O)c1C,-10.6%
18,CCSc1nc2c([nH]c3ccccc32)c(=O)n1CC,-4.99%
19,O=C(NCc1ccccc1Cl)c1cc2c(s1)-c1ccc(Cl)cc1SC2,6%
20,Cc1ccc(C(=O)CSc2nc(-c3ccccc3)nc3c2CCCC3)cc1,8.37%
21,CCOc1ccccc1NC(=O)N1CC(CC)Oc2ccccc21 (stereo not drawn),5.34%
22,CCOC(=O)CSc1nc(-c2ccc(C)cc2C)cc(-c2ccccc2)c1C#N,-4.74%
23,COc1ccc(OC)c(CNC(=O)c2ccc(Sc3ccc(C)cc3)c(N)c2)c1,7.89%
24,Cc1ccc(NC(=O)CN2C(=O)CCc3cc(S(=O)(=O)N4CCOCC4)ccc32)cc1F,10.4%
25,CCc1ccc(-n2nc(C)c3c(C)cc(=O)n(Cc4nc(-c5ccccc5)oc4C)c32)cc1,8.39%

row,Structure (SMILES),inhibition
1,CCCc1nn2c(=O)cc(COC(=O)c3ccccc3NC(=O)COc3ccccc3F)nc2s1,-21.1%
2,COc1ccc(NC(=O)c2oc3ccc(S(=O)(=O)N4CCCCC4)cc3c2C)cc1,3.79%
3,CCOc1ccc(CNC(=O)C2Cc3ccccc3N2C(=O)CC)cc1OC (stereo not drawn),5.34%
4,Cc1cccc(CNC(=O)CCn2c(=O)c3cccn3c3ccc(F)cc32)c1,1.68%
5,Cc1nc2c(C(=O)NCCCN(CC(C)C)CC(C)C)cnn2c(C)c1Cc1c(F)cccc1Cl,13.5%
6,CCCOC(=O)c1c(NC(=O)c2nc3ncccn3n2)sc(C(N)=O)c1C,0.632%
7,Cc1ccc(C(=O)Nc2cc3c(cc2C)n(C)c(=O)c(=O)n3C)cc1,6.31%
8,CCOC(=O)c1c(-c2ccccc2)oc2ccc(NS(=O)(=O)c3cc(C)c(C)cc3C)cc12,2.68%
9,CCOc1ccccc1CN1CCN(S(=O)(=O)c2ccccc2)CC1,-5.72%
10,CC(=O)c1cccc(NC(=O)c2oc3c(c2C)-c2nn(Cc4ccc(Cl)cc4)cc2CC3)c1,-14.9%
11,O=C(CN1N=C(c2ccc(Cl)cc2)CCC1=O)NCCc1ccc(Cl)cc1,13.2%
12,COCc1nc2ccccc2n1CCOc1cccc(C)c1,-5.1%
13,COc1ccc(S(=O)(=O)N2CCCN(CC(=O)Nc3ccc(NC(C)=O)cc3)CC2)cc1,-3.97%
14,Cc1ccccc1NC(=O)c1ccc2c(c1)c(C)c(C)n2Cc1ccccc1,4.96%
15,COc1ccccc1NC(=O)CSC1=Nc2ccccc2C2=NC(CC(=O)NCc3ccco3)C(=O)N12 (stereo not drawn),11.4%
16,CCOc1ccc(N(CC)S(=O)(=O)c2cc(Br)cc3c2N(C(C)=O)C(C)C3)cc1 (stereo not drawn),-9.71%
17,COc1ccc(NC(=O)CSc2nc(-c3ccco3)cc(C(F)(F)F)n2)cc1OC,1.3%
18,Cc1ccccc1N1C(=O)CC(Nc2ccc3c(c2)OCO3)C1=O (stereo not drawn),active: 31.4%
19,CN(Cc1ccccc1)S(=O)(=O)c1nnc(NC(=O)c2cccc(Cl)c2)s1,14.6%
20,CCCCN(C)CCCNC(=O)Cn1ncc2c3ccccc3n(Cc3ccccc3)c2c1=O,2.03%
21,Cc1cccc(NC(=O)CSc2nccn2Cc2ccc(F)cc2)c1C,1.27%
22,CC1CCCc2sc3nc(SCC(=O)c4ccc(Br)cc4)nc(N)c3c21 (stereo not drawn),0.101%
23,O=c1c2ccccc2[nH]c(=S)n1CCCN1CCC(Cc2ccccc2)CC1,active: 81.8%
24,COc1ccc(S(=O)(=O)c2cnc3ccc(Cl)cc3c2N2CCCCC2C)cc1 (stereo not drawn),3.58%
25,Cc1cc(C)cc(OCC(=O)Nc2c(C)ccc3nsnc23)c1,6.27%

row,Structure (SMILES),inhibition
1,Cc1ccccc1NC(=O)CSc1nc2nccnc2c(=O)n1CCc1c[nH]c2ccccc12,8.07%
2,COc1cccc(N2CC(NC(=O)c3ccc(S(=O)(=O)N4CCOCC4)cc3)CC2=O)c1 (stereo not drawn),4.26%
3,O=C(NCCc1ccccc1)c1nc(-c2ccc(Cl)cc2)n2c1CCCCC2,10.1%
4,COc1ccc(CNc2nc3c(-c4ccccc4)nnn3c3ccccc23)cc1,-14.6%
5,O=C(NCc1ccc2c(c1)CCO2)Nc1cccc(C(F)(F)F)c1,active: 39.8%
6,Cc1c(C(=O)Nc2nc(-c3ccc(F)cc3)ns2)oc2ccc(Cl)cc12,7.51%
7,Cc1ccc(CCNC(=O)CS(=O)Cc2nc(-c3ccccc3Cl)oc2C)cc1 (stereo not drawn),24%
8,Cc1ccc2oc(C(=O)Nc3cccc(Cl)c3)cc(=O)c2c1,5.12%
9,O=C(Cc1ccccc1)Nc1sc2c(c1C(=O)Nc1ccc(Br)cc1)CCC2,2.45%
10,COc1ccccc1C(=O)Nc1ccccc1OCc1cc(=O)n2ccccc2n1,-6.88%
11,COc1ccccc1Nc1sc(C(=O)c2ccc(C)cc2C)c(N)c1S(=O)(=O)c1ccccc1,-9.88%
12,CCc1ccc(S(=O)(=O)c2nnn3c2nc(Nc2cc(OC)ccc2OC)c2sccc23)cc1,-10.2%
13,COc1ccccc1N1CCN(CCC(=O)Nc2ccc(F)cc2)CC1,active: 66.4%
14,O=S(=O)(NCCS(=O)(=O)N1CCN(c2ccccc2)CC1)c1ccc(Br)cc1,1.84%
15,CCNc1nc(NCc2ccc(F)cc2)c2cnn(C)c2n1,11.5%
16,O=C(c1cnn(-c2ccc(F)cc2)c1-n1cccc1)N1CCN(c2ccc(F)cc2)CC1,-3.72%
17,CC1CCN(S(=O)(=O)c2ccc3c(c2)CCN3)CC1,21.8%
18,CC1=C(C(=O)Nc2cccc(Cl)c2C)C2(CCCCCC2)OC1=O,-16%
19,CCCCN(C)C(=O)c1cn(C)c2ccc(S(=O)(=O)N3CCC(C)CC3)cc2c1=O,2.32%
20,CCc1ccc(NC(=O)CSC2=Nc3ccccc3C3=NC(CCC(=O)NCc4ccccc4)C(=O)N23)cc1 (stereo not drawn),0.768%
21,Cc1ccccc1NC(=O)Cn1cc(C(=O)c2cccs2)c2ccccc21,23.1%
22,O=C(Cn1ccc2cc(S(=O)(=O)N3CCCCC3)ccc21)NCCc1ccccc1Cl,-3.46%
23,COc1ccccc1NC(=O)Cn1c(=O)n(Cc2ccccc2)c(=O)c2c1c1cc(C)ccc1n2C,1.78%
